Out of some 52,000 compounds screened, about 4,300 (8.3%) were called active. Cut-off read from the data, not from the text of the source: active = survival mostly below about 52% (no sharp cut-off); inactive = mostly above about 56%. The list shows a part of the results.

The test relates to DeltatarO mutant. Kind of test: S. aureus survival, RN4220 and DeltatarO strains – OD600, teichoic acid synthesis inhibitors, primary screen (AID 463173). The settings on record: S. aureus RN4220 wild type/DeltatarO growth, OD600, 18 h, active compounds read low, screened at 18.75 µg/mL (by protocol).
For `CCOc1ccccc1CNC(=O)CCCN1C(=O)CCn2nc(-c3cccn3C)cc21`, the survival is inactive: 84%. For the compound `CCN1C(=O)N(C)C2C1N(C)C(=O)N2CC` (stereo not given), the survival is inactive: 72%. The result for `Cc1cc(C)c(NC(=O)CCn2nnc3ccccc32)c(C)c1` reads inactive: 101%; that for `COc1ccc(C(=O)N2CCCCC2CCN2CCCCC2)cc1` (stereo not given), inactive: 82%. `COc1ccc(Cl)cc1NC(=O)[C@H]1O[C@@H]2OC(C)(C)O[C@@H]2[C@H]2OC(C)(C)O[C@H]21`: the survival was inactive: 83%. In the case of `O=S(=O)(c1cccs1)N1CCN(c2ccc(Cl)cc2)CC1`, the survival was inactive: 72%. Consider `CCOc1ccc(CNC(=O)Cn2ncc3c(=O)oc4ccc(C)cc4c32)cc1`, for which the survival is inactive: 78%. For `Cc1ccc(C)c(CN2C(=O)c3ccccc3S(=O)(=O)c3ccc(C(=O)N4CCOCC4)cc32)c1`, the survival was inactive: 113%. With `COc1ccc(Cl)cc1N(C)C(=O)Cn1cnc2sc(C)c(S(=O)(=O)N3CCN(c4ncccn4)CC3)c2c1=O`, the survival was inactive: 61%. Turning to `CCC(CC)C(=O)Nc1ccccc1C(=O)OCc1cc(=O)n2nc(C3CCCCC3)sc2n1`, the survival is inactive: 92%. As for `CC(C)NC(=O)CSc1nnc(Cc2ccccc2)n1Cc1ccco1`, the survival is active: 40%.

With `COC(=O)c1ccc(NC(=O)N2CCN(c3nnc(C)c4c(C)n(-c5ccccc5)nc34)CC2)cc1`, the survival is inactive: 65%.

In the case of `O=C(Cn1c(=O)c(C(F)(F)F)nc2ccccc21)Nc1ccc(Br)cc1F`, the survival is inactive: 102%. For the compound `COc1ccc(S(=O)(=O)N2CCN(c3ccccc3)CC2)cc1-c1noc(C)n1`, the survival was inactive: 57%. In the case of `Cc1ccccc1Cn1cc(CCC(=O)NCc2cccc(Br)c2)c2ccccc21`, the survival is inactive: 115%. With `O=C(c1cnc2c(c1)COc1ccccc1-2)c1ccccc1O`, the survival is active: 3%. In the case of `Cn1nc(-c2ccccc2F)c2cc(C(=O)Nc3cc(F)ccc3F)sc21`, the survival was inactive: 84%. For `CC(C)(C)NC(=O)CSc1nc(-c2ccc(F)cc2)cc(C(F)(F)F)n1`, the survival is inactive: 72%. In the case of `COc1ccc(S(=O)(=O)NCC(c2ccco2)N2CCN(c3ccc(F)cc3)CC2)cc1` (stereo not given), the survival is inactive: 84%. As for `CC(C)c1cnc2c(c1SCC(=O)c1ccccc1)c(=O)n(C)c(=O)n2C`, the survival was inactive: 95%. The result for `O=C(NCc1ccccc1)c1ccc2c(c1)N(Cc1ccccc1)C(=O)c1ccccc1S2(=O)=O` reads inactive: 76%. For `Cc1cccc(C(=O)Nc2ccc(C(=O)OCc3cc(=O)n4c(C)csc4n3)cc2)c1`, the survival was inactive: 128%. `CCCCOc1cccc(C(=O)N(Cc2ccc(Br)o2)C2CCS(=O)(=O)C2)c1` (stereo not given): the survival was inactive: 81%. With `NC(=O)CSc1oc(-c2cccs2)nc1S(=O)(=O)c1ccc(Br)cc1`, the survival is inactive: 119%. The same measure for `O=C(Nc1cccc(Cl)c1)C1CCN(S(=O)(=O)Cc2ccccc2)CC1`: inactive: 55%; for `Cc1ccc(NC(=O)CCn2cnc3ccccc3c2=O)cc1C`: inactive: 81%; for `Cc1ccc(CNS(=O)(=O)c2cc(Br)cc3c2N(C(=O)C2CC2)CC3)cc1`: inactive: 55%. On to `Cc1cccc2c(=O)cc(CSCC(=O)Nc3ccc(Cl)cc3)[nH]c12`, for which the survival was inactive: 100%. In the case of `CCOc1ccc(C(=O)Nc2ccc(-c3nnc4n3CCCCC4)cc2)cc1OCC`, the survival was inactive: 69%. Regarding `Cc1ccc(Cn2c(=O)n(Cc3ccccc3)c(=O)c3c(C)c(C)sc32)cc1`, the survival was inactive: 81%. On to `Cc1ccc(CNC(=O)C(=O)NCC(c2ccco2)S(=O)(=O)c2ccc(C)cc2)cc1` (stereo not given), for which the survival is inactive: 73%.

In the case of `CCOC(=O)Cn1c(=O)n(C2CCCCC2)c2nc(-c3ccc(OC)cc3)nc(C(N)=O)c21`, the survival was inactive: 77%. As for `CC(C)(C)n1cnc2cc(NS(=O)(=O)c3ccccc3)ccc21`, the survival was inactive: 86%. Turning to `COc1ccc(Cc2nc3ccc(C(=O)NCCc4ccc(OC)c(OC)c4)cc3o2)cc1`, the survival was inactive: 77%.

Consider `Cc1cc(C)c(S(=O)(=O)Nc2cc(Cl)c3oc4c(c3c2)C(=O)CCC4)cc1C`, for which the survival is inactive: 69%. `Cn1c(=O)n(C)c2cc(CNCc3ccccc3)ccc21`: the survival was inactive: 88%. Consider `Cc1oc(-c2ccc(Cl)cc2)nc1CN1CCCC(C(=O)NCCc2ccccc2)C1` (stereo not given), for which the survival was active: 44%. Take `N/C(CN1CCCC1=O)=N\O`: the survival is inactive: 87%. The result for `CCc1cccc(C)c1NC(=O)c1cc(S(=O)(=O)N2CCC3(CC2)OCCO3)ccc1F` reads inactive: 116%; that for `COc1ccc(C2CC(=O)c3cc(-c4nc(-c5cccc([N+](=O)[O-])c5)cs4)c(=O)n(-c4ccc(F)cc4)c3C2)cc1` (stereo not given), inactive: 51%. The same measure for `COc1cccc(/C=N/NC(=O)CSCc2ccccc2)c1O`: inactive: 69%. As for `CC(=O)c1ccc(NC(=O)CSc2c(C(C)C)cnc3c2c(=O)n(C)c(=O)n3C)cc1`, the survival is inactive: 85%. For `Cc1ccc(S(=O)(=O)N2CCCc3cc(NS(=O)(=O)c4ccc(C)c(C)c4)ccc32)cc1`, the survival was inactive: 67%. Take `CC(C)(C)C(=O)Nc1nc2nc(-c3ccccc3)cc(=O)n2[nH]1`: the survival was inactive: 66%. On to `CCCCNC(=O)CN1C(=O)c2c(c3ccccc3n2C)C1c1ccc(OC)cc1` (stereo not given), for which the survival is inactive: 82%. In the case of `Cc1ccc2oc(-c3cccc(NC(=O)c4ccc(N5CCC(C)CC5)c([N+](=O)[O-])c4)c3)nc2c1`, the survival is inactive: 122%. The same measure for `COc1ccc(Nc2nc(Nc3ccc(OC)cc3OC)nc(N3CCOCC3)n2)c(OC)c1`: active: 14%; for `COc1ccc(-c2nc(C)c(CCNS(=O)(=O)c3ccc(F)cc3)s2)cc1OC`: inactive: 96%; for `CCc1ccc2[nH]c(=O)c(C(c3nnnn3C(C)(C)C)N3CCc4ccccc43)cc2c1` (stereo not given): inactive: 96%. For the compound `COC(=O)c1ccccc1NC(=O)c1cn2c3c(ccc(Cl)c3c1=O)OC(C)C2` (stereo not given), the survival is inactive: 84%.

In the case of `CC(C)c1ccc(CN(Cc2ccco2)c2cnc(S(C)(=O)=O)nc2C(=O)Nc2ccccc2)cc1`, the survival is active: 44%. On to `CCCCNC(=O)C1CCN(c2nc3ccc(C)cc3[nH]2)CC1`, for which the survival is inactive: 91%. Turning to `O=C(Cn1c(=O)n(Cc2ccc(C(=O)NCc3ccc4c(c3)OCO4)cc2)c(=O)c2ccccc21)Nc1ccc(F)cc1F`, the survival is inactive: 88%.

With `COc1ccc(C2(N3CCN(c4cccc(C)c4C)CC3)C(=O)c3ccccc3C2=O)cc1`, the survival is inactive: 83%. The result for `Cc1c(-c2nnc(SCC(=O)Nc3ccc(Br)cc3)o2)nnn1-c1ccc(F)cc1` reads inactive: 96%.

For the origin of these results see PubChem BioAssay AID463173 (ICCB-Longwood Screening Facility, Harvard Medical School, 2010).
